Data reported in the supplement of paper PMC9446081.
Out of some 39,000 compounds screened, about 220 (0.56%) showed activity. The list shows a part of the results.
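Note: static incubation at 37 °C against the wild-type strain, values averaged over two biological replicates.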

Each compound was assayed on Escherichia coli K-12 BW25113 (assay: relative growth (OD600 normalised to plate interquartile mean) (fraction); higher = less growth inhibition, active = 0.2 or less). Conditions: 50 µM; LB; incubation time: overnight (16-24 h).
CN(C)CC(=O)N1CC(=O)N2[C@H](CO)[C@H](c3ccc(C#Cc4cccnc4)cc3)[C@@H]2C1 was tested, and the relative growth was inactive: 0.994.
C[C@@H]1CN([C@H](C)CO)C(=O)c2cccc(NC(=O)Nc3cccc4ccccc34)c2O[C@@H]1CN(C)S(=O)(=O)c1cccs1 was tested, and the relative growth was inactive: 1.01.
In the case of C[C@@H]1CN([C@H](C)CO)C(=O)c2cc(NC(=O)Cc3ccccc3)ccc2O[C@@H](C)CCCCO[C@@H]1CN(C)Cc1ccc(C(F)(F)F)cc1, the relative growth is reported as inactive: 1.02.
C[C@H]1CN([C@@H](C)CO)C(=O)Cc2cc(NC(=O)Nc3ccc(F)cc3)ccc2O[C@H]1CN(C)C(=O)Nc1ccc(C(F)(F)F)cc1 was tested, and the relative growth was inactive: 1.03.
In the case of C[C@H]1CN([C@@H](C)CO)C(=O)c2cccc(NC(=O)c3ccncc3)c2O[C@@H]1CN(C)Cc1ccc(C(=O)O)cc1, the relative growth is reported as inactive: 0.983.
With CS(=O)(=O)c1ncc(Cl)c(C(=O)NCCc2ccc(S(N)(=O)=O)cc2)n1 the relative growth was inactive: 0.998.
With C[C@@H]1CN([C@H](C)CO)C(=O)c2cccc(NC(=O)C3CCCCC3)c2O[C@@H]1CN(C)Cc1ccc(Oc2ccccc2)cc1 the relative growth was inactive: 0.924.
For CN(C)CCCNC(=O)C[C@H]1CC[C@@H]2[C@@H](COc3ccc(NS(C)(=O)=O)cc3C(=O)N2C)O1, the relative growth was inactive: 0.989.
With C[C@H](CO)N1C[C@H](C)[C@@H](CN(C)CC2CCCCC2)Oc2ccc(NC(=O)CCN3CCOCC3)cc2CC1=O the relative growth was inactive: 0.978.
With C[C@H](NC(=O)C[C@@H]1C=C[C@@H](NC(=O)CN2CCOCC2)[C@H](CO)O1)c1ccccc1 the relative growth was inactive: 0.994.
In the case of Cc1noc(C)c1NC(=O)N(C)C[C@@H]1OCCCC[C@@H](C)Oc2ccc(NS(=O)(=O)c3cccs3)cc2C(=O)N([C@H](C)CO)C[C@@H]1C, the relative growth is reported as inactive: 0.993.
With N=C(N)NCCC(=O)O the relative growth was inactive: 1.03.
With C[C@H]1CN([C@@H](C)CO)C(=O)Cc2cc(NC(=O)Nc3ccc(C(F)(F)F)cc3)ccc2O[C@H]1CN(C)CC1CCCCC1 the relative growth was inactive: 0.974.
Cc1noc(C)c1S(=O)(=O)Nc1ccc2c(c1)C(=O)N([C@@H](C)CO)C[C@@H](C)[C@@H](CN(C)C(=O)NC1CCCCC1)O2 was tested, and the relative growth was inactive: 0.979.
C[C@H]1CN([C@@H](C)CO)C(=O)c2cc(NC(=O)Cc3cn(C)c4ccccc34)ccc2O[C@H]1CN(C)Cc1ccc(Oc2ccccc2)cc1 was tested, and the relative growth was inactive: 1.
For C[C@H]1CN([C@@H](C)CO)C(=O)Cc2cc(NC(=O)NC3CCCCC3)ccc2O[C@@H]1CN(C)S(C)(=O)=O, the relative growth was inactive: 0.939.
In the case of CCCNC(=O)N1C[C@@H](O)COC[C@H]2O[C@H](CC(=O)N3CCN(C)CC3)CC[C@@H]21, the relative growth is reported as inactive: 0.965.
With CNCc1nc(C(C)C)no1 the relative growth was inactive: 1.02.
With C[C@@H]1CN([C@H](C)CO)C(=O)Cc2cc(NS(C)(=O)=O)ccc2O[C@@H]1CN(C)S(=O)(=O)c1cn(C)cn1 the relative growth was inactive: 1.02.
C[C@H]1CN([C@@H](C)CO)C(=O)c2cccc(NC(=O)c3cnccn3)c2O[C@@H]1CN(C)S(=O)(=O)c1cn(C)cn1 was tested, and the relative growth was inactive: 0.993.
C[C@H]1CN([C@@H](C)CO)C(=O)CCCn2cc(nn2)CO[C@H]1CN(C)S(=O)(=O)c1ccc(Cl)cc1 was tested, and the relative growth was inactive: 0.936.
C[C@@H]1CCCCO[C@@H](CN(C)C(=O)Nc2ccc(F)cc2)[C@@H](C)CN([C@@H](C)CO)C(=O)c2cc(NC(=O)Nc3ccccc3)ccc2O1 was tested, and the relative growth was inactive: 1.03.
For C=C(C)/C=C1/C=CC(=O)C(C)=C1, the relative growth was inactive: 1.03.
With C[C@H]1CN([C@@H](C)CO)C(=O)c2cccc(NS(=O)(=O)c3ccccc3)c2O[C@@H]1CN(C)Cc1ccc(Cl)c(Cl)c1 the relative growth was inactive: 0.973.
With C[C@H]1CN([C@@H](C)CO)C(=O)Cc2cc(NC(=O)Cc3ccccc3)ccc2O[C@@H]1CN(C)Cc1ccc(C(F)(F)F)cc1 the relative growth was inactive: 1.07.
With O=C1CC(c2ccc(O)cc2)Oc2cc(O)cc(O)c21 (stereo not drawn) the relative growth was inactive: 0.969.
For C[C@@H]1CCCCO[C@@H](CN(C)S(=O)(=O)c2ccccc2)[C@@H](C)CN([C@H](C)CO)C(=O)c2cc(NC(=O)Nc3ccc4c(c3)OCO4)ccc2O1, the relative growth was inactive: 1.04.
COc1ccc(NC(=O)N(C)C[C@H]2Oc3ccc(NC(=O)Nc4ccc(C(F)(F)F)cc4)cc3C(=O)N([C@@H](C)CO)C[C@@H]2C)cc1 was tested, and the relative growth was inactive: 0.959.
For O=C1NC(=O)NC2(N1)C(=O)Nc1ccccc12, the relative growth was inactive: 0.967.
In the case of C[C@@H]1CCCCO[C@@H](CN(C)S(=O)(=O)c2cccs2)[C@H](C)CN([C@@H](C)CO)C(=O)c2cc(NS(C)(=O)=O)ccc2O1, the relative growth is reported as inactive: 1.
With C[C@H]1O[C@H](O[C@H]2[C@H](O)[C@@H](O)[C@@H](O[C@H]3[C@H](O)[C@@H](O)[C@H](O)O[C@@H]3CO)O[C@@H]2CO)[C@H](O)[C@@H](O)[C@@H]1N[C@H]1C=C(CO)[C@@H](O)[C@H](O)[C@H]1O the relative growth was inactive: 1.01.
For Cc1noc(C)c1S(=O)(=O)N(C)C[C@@H]1Oc2ccc(NC(=O)Cn3cnnn3)cc2CC(=O)N([C@H](C)CO)C[C@@H]1C, the relative growth was inactive: 1.01.
In the case of CN1CCN(C(=O)C[C@@H]2CC[C@H](NC(=O)c3ccc4c(c3)OCO4)[C@H](CO)O2)CC1, the relative growth is reported as inactive: 0.987.
COc1ccc(-c2cnc3c(c2)C(=O)N([C@H](C)CO)C[C@H](C)[C@H](CN(C)Cc2cccc(C(F)(F)F)c2)O3)cc1 was tested, and the relative growth was inactive: 0.992.
With C[C@@H]1CN([C@@H](C)CO)C(=O)c2cccc(NS(=O)(=O)c3ccc(F)cc3)c2O[C@H]1CN(C)Cc1ccc(-c2ccccc2)cc1 the relative growth was inactive: 1.01.
In the case of CCS(=O)(=O)N1C[C@]2(CCN(CC2)S(=O)(=O)c2ccccc2)c2c(n(c3cc(ccc23)OC)C)[C@@H]1CO, the relative growth is reported as inactive: 0.988.
C[C@@H]1CN([C@@H](C)CO)C(=O)Cc2cc(NC(=O)C3CC3)ccc2O[C@@H]1CN(C)Cc1ccc(Oc2ccccc2)cc1 was tested, and the relative growth was inactive: 0.973.
In the case of Cc1ccc(S(=O)(=O)N(C)C[C@@H]2Oc3ccc(NC(=O)CCN4CCOCC4)cc3CC(=O)N([C@@H](C)CO)C[C@H]2C)cc1, the relative growth is reported as inactive: 1.03.
With Cn1cnc(S(=O)(=O)N2C[C@@H](O)COC[C@@H]3O[C@@H](CC(=O)NCc4ccc(F)cc4)CC[C@H]32)c1 the relative growth was inactive: 1.01.
With COc1ccc(CN(C)C[C@H]2OCCCC[C@H](C)Oc3ccc(NC(=O)NC(C)C)cc3C(=O)N([C@H](C)CO)C[C@@H]2C)cc1 the relative growth was inactive: 1.03.
With C[C@@H]1CN([C@H](C)CO)C(=O)c2cc(NC(=O)CCC(F)(F)F)ccc2O[C@@H](C)CCCCO[C@@H]1CN(C)S(=O)(=O)c1ccccc1 the relative growth was inactive: 1.
In the case of C[C@H]1CCCCO[C@@H](CN(C)C(=O)Nc2ccc3c(c2)OCO3)[C@@H](C)CN([C@@H](C)CO)C(=O)c2cc(NC(=O)C3CCCCC3)ccc2O1, the relative growth is reported as inactive: 0.989.
In the case of C[C@@H]1CN([C@H](C)CO)C(=O)c2cc(NC(=O)c3ccccc3)ccc2O[C@@H](C)CCCCO[C@H]1CN(C)S(=O)(=O)c1ccccc1, the relative growth is reported as inactive: 1.02.
In the case of COc1ccc(S(=O)(=O)Nc2ccc3c(c2)CC(=O)N([C@@H](C)CO)C[C@@H](C)[C@H](CN(C)CC2CC2)O3)cc1, the relative growth is reported as inactive: 1.01.
C[C@@H]1CCCCO[C@H](CN(C)S(=O)(=O)c2cn(C)cn2)[C@H](C)CN([C@@H](C)CO)C(=O)c2cc(NS(=O)(=O)c3ccccc3)ccc2O1 was tested, and the relative growth was inactive: 1.01.
C[C@H]1CCCCO[C@H](CN(C)C(=O)Nc2cccc3ccccc23)[C@@H](C)CN([C@@H](C)CO)C(=O)c2cc(NS(=O)(=O)c3cccs3)ccc2O1 was tested, and the relative growth was inactive: 0.959.
For Cc1cc(NC(=O)[C@@H]2CCCN2)no1, the relative growth was inactive: 1.01.
CC(C)NC(=O)Nc1ccc2c(c1)C(=O)N([C@H](C)CO)C[C@@H](C)[C@@H](CN(C)C(=O)Nc1ccc(C(F)(F)F)cc1)OCCCC[C@@H](C)O2 was tested, and the relative growth was inactive: 1.08.
In the case of NCc1ccc(C(=O)N2CCCC2)cc1, the relative growth is reported as inactive: 1.01.
With C[C@@H]1CN([C@@H](C)CO)C(=O)c2cccc(NC(=O)Nc3ccc(C(F)(F)F)cc3)c2O[C@@H]1CN(C)Cc1ccc(C(F)(F)F)cc1 the relative growth was inactive: 1.03.
With COc1ccc(S(=O)(=O)N(C)C[C@@H]2Oc3c(NC(=O)Nc4cccc5ccccc45)cccc3C(=O)N([C@@H](C)CO)C[C@H]2C)c(OC)c1 the relative growth was inactive: 0.836.
In the case of COc1ccc(S(=O)(=O)Nc2ccc3c(c2)CC(=O)N([C@@H](C)CO)C[C@@H](C)[C@@H](CN(C)S(=O)(=O)c2ccc(OC)cc2)O3)cc1, the relative growth is reported as inactive: 1.03.
In the case of C[C@@H]1CN([C@@H](C)CO)C(=O)c2cccc(NS(=O)(=O)c3cn(C)cn3)c2O[C@@H]1CN(C)S(=O)(=O)c1ccc(F)cc1, the relative growth is reported as inactive: 0.989.
With C[C@H]1CCCCO[C@@H](CN(C)C(=O)Nc2ccc(C(F)(F)F)cc2)[C@@H](C)CN([C@@H](C)CO)C(=O)c2cc(NC(=O)Nc3cccc4ccccc34)ccc2O1 the relative growth was inactive: 1.03.
With C[C@@H]1CN([C@H](C)CO)C(=O)Cc2cc(NS(=O)(=O)c3ccc(F)cc3)ccc2O[C@H]1CN(C)S(C)(=O)=O the relative growth was inactive: 0.976.
With COc1ccc(NC(=O)Nc2ccc3c(c2)C(=O)N([C@H](C)CO)C[C@@H](C)[C@@H](CN(C)Cc2ccc(-c4ccccc4)cc2)O3)cc1 the relative growth was inactive: 1.04.
In the case of COc1ccc(NC(=O)N2C[C@H](O)COC[C@@H]3O[C@H](CC(=O)NCc4ccccc4OC)CC[C@H]32)cc1, the relative growth is reported as inactive: 0.984.
For CN(C)CC(=O)N[C@@H]1CC[C@@H](CC(=O)O)O[C@H]1CO, the relative growth was inactive: 1.
